According to PubChem BioAssay AID493208 (National Center for Advancing Translational Sciences (NCATS), 2011):
About 340 (0.77%) of roughly 44,000 compounds were called active. Not shown: some 5% with an inconclusive outcome. Calls come from the whole dose curve; as a rule, active = well fitted inhibition curve with a large enough effect; inconclusive = small, poorly fitted or top-dose-only effect; inactive = flat fitted curve, though single readings scatter. The list shows a part of the results.

assay: Acumen qHTS Assay for Inhibitors of the mTORC1 Signaling Pathway in MEF (Tsc2-/-, p53-/-) Cells: Sytravon; details: phospho-rpS6 immunofluorescence/PI, 24 h; series mostly up to 38.3 µM; activity change, negative = inhibition: at the top concentration;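 note: plate controls were DMSO for no effect and rapamycin for full effect; nearly all actives have a fitted effect of over 50% in size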
Outline: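 Immunofluorescence of rpS6 phosphorylation in Tsc2-/-, p53-/- MEFs after 24 h compound exposure, normalized to propidium iodide signal. Activity is expressed as % positive cells, thresholded with 7.5 nM rapamycin.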

| Compound | activity change, negative = inhibition |
| --- | --- |
| CCN(C(=O)c1cn(CC(C)C)c(=O)c2cc(OC)c(OC)cc12)c1cc(OC)ccc1OC | inactive: -1.55% |
| COc1ccc2c(c1)sc1ncc(C(=O)NCc3cccc(C)c3)c(=O)n12 | inactive: -5.37% |
| CCc1ccc(C(=O)c2cn(CC(=O)Nc3cc(F)ccc3F)c3nc(C)ccc3c2=O)cc1 | inactive: -4.43% |
| CCc1ccccc1NC(=O)Cn1ccn(Cc2ccccc2)c(=O)c1=O | inactive: 0% |
| COc1ccc(NC(=O)CCc2nnc3n(Cc4ccc(C)cc4)c(=O)c4ccccc4n23)cc1 | inactive: 0.247% |
| CC1CCCCN1C(=O)CCS(=O)(=O)c1cc2c(cc1Cl)NC(=O)CO2 (centres undefined) | inactive: 3.98% |
| COc1cccc(CNCCCSc2nnnn2C)c1OC | inactive: -3.32% |
| CCS(=O)(=O)c1nc(S(=O)(=O)c2ccc(C)cc2)c(NC)s1 | inactive: 3.49% |
| Cc1cccc(C(=O)N2CCc3cc(CNS(=O)(=O)c4ccc(F)c(Cl)c4)ccc32)c1 | inactive: -7.93% |
| COc1ccc(NS(=O)(=O)c2ccc3[nH]c4c(c3c2)CCCCC4)cc1 | inactive: -5.16% |
| CC(=O)Nc1c(C)nn(-c2ccccc2)c1N1CCC(C(=O)Nc2ccccc2F)CC1 | inactive: 18.9% |
| O=C(Nc1ccccc1)N(Cc1cccc(Cl)c1)c1ccccn1 | inactive: -19% |
| CC(=O)c1ccc(N2CCN(C(=O)Nc3ccc(C(C)C)cc3)CC2)cc1 | inactive: -7.36% |
| COc1ccc(CCNC(=O)c2ccc3c(c2)ncn3-c2ccc(C(C)C)cc2)cc1OC | inactive: -1.5% |
| CC(C)c1ccc2occ(CC(=O)N(Cc3ccc(F)cc3)C3CCS(=O)(=O)C3)c2c1 (centres undefined) | inactive: -7.64% |
| Cn1c2ccccc2c2cnn(CC(=O)NCCCN3CCN(c4ccccc4F)CC3)c(=O)c21 | inactive: 0.038% |
| COc1ccc(NC(=O)c2ccco2)cc1NC(=O)c1c(OC)cccc1OC | inactive: 0.417% |
| CCOc1ccc(CN2C(=O)c3ccccc3C2C(=O)NCCc2ccc(OC)c(OC)c2)cc1 (centres undefined) | inactive: 0.89% |
| COc1ccccc1NC(=O)C1=C(C)Nc2ncnn2C1c1cccn1C (centres undefined) | inactive: -1.9% |
| CCOC(=O)c1c(S(=O)(=O)N2CCC(C(=O)Nc3ccc(F)cc3F)CC2)c(C)n(C)c1C | inactive: -13.3% |
| COc1ccc(CNC(=O)Cc2c(C)c3cc4c(C)coc4c(C)c3oc2=O)cc1OC | inactive: 2.72% |
| COc1ccc(Cn2c(CO)cnc2SCc2ccccc2C)cc1 | inactive: 5.33% |
| CC1Cc2cc(S(=O)(=O)CCC(=O)NCc3ccccc3Cl)ccc2N1C(=O)C1CC1 (centres undefined) | inactive: -19.8% |
| CCOc1ccc(CNS(=O)(=O)c2ccc3c(c2)CCCN3C(C)=O)cc1 | inactive: -0.0441% |
| Cc1ccc(C)c(NC(=O)C2CCN(c3cc(C)nc4c(-c5ccc(Cl)cc5)c(C)nn34)CC2)c1 | inactive: 1.99% |

| Compound | activity change, negative = inhibition |
| --- | --- |
| COc1ccc(-n2cc(C(=O)Oc3cc(C)cc(C)c3)c3ccccc3c2=O)cc1 | inactive: 0.248% |
| COc1cccc(NC(=O)Cn2cc(C(=O)c3ccco3)c3ccccc32)c1 | inactive: 0.484% |
| CCC(=O)N1CCc2cc(S(=O)(=O)Nc3cc(C)ccc3OC)ccc21 | inactive: 4.69% |
| CC(C)C(=O)Nc1ccc2nc(SCC(=O)N3CCc4ccccc43)sc2c1 | inactive: -7.49% |
| Cc1ccc(-n2c(SCC(=O)c3ccccc3)nc3c([nH]c4ccccc43)c2=O)cc1 | inactive: 0.195% |
| COc1ccccc1CC(=O)Nc1ccc2nc(Nc3cccc(Cl)c3)cc(C)c2c1 | inactive: 0.656% |
| CC(C)c1ccc(NC(=O)Cn2cc(S(=O)(=O)Cc3ccccc3Cl)c3ccccc32)cc1 | inactive: -11.7% |
| Cc1cc(C)cc(NC(=O)c2cc(S(=O)(=O)N3CCc4ccccc43)cn2C)c1 | inactive: -9.1% |
| O=C(Nc1ccc2oc(-c3cccc(F)c3)nc2c1)c1ccc2ccccc2c1 | inactive: 6.51% |
| COc1ccccc1CNC(=O)c1ccc2c(c1)N(Cc1c(F)cccc1Cl)C(=O)CS2 | inactive: 1.27% |
| CCCCC(Sc1nc2cc3c(cc2c(=O)n1CCCC(=O)NCc1ccc2c(c1)OCO2)OCO3)C(=O)OCC (centres undefined) | inactive: -0.267% |
| O=C(CSc1ncc(S(=O)(=O)c2ccc(Br)cc2)c(=O)[nH]1)Nc1ccc2c(c1)OCCO2 | inactive: -7.31% |
| COc1cccc(NC(=O)Cn2c(=O)n(CCCCC(=O)NCc3ccccc3Cl)c(=O)c3ccccc32)c1 | inactive: -13.1% |
| CCOc1ccccc1N1CCN(S(=O)(=O)c2ccc(C3CCCCC3)cc2)CC1 | inactive: -0.701% |
| CC1CCN(C(=O)CSc2nc3ccccc3nc2Cc2ccccc2)CC1 | inactive: -11.3% |
| Cc1ccc(CNC(=O)Cn2c3ncccc3c(=O)n2-c2ccc(C)cc2)cc1 | inactive: 5.08% |
| CC(C)c1cc(-c2nc(-c3cccc(Cl)c3)no2)n[nH]1 | inactive: -0.154% |
| COc1ccc(C)c2sc(N3CCN(C(=O)c4ccco4)CC3)nc12 | inactive: 3.27% |
| CCOc1ccc(CNC(=O)CSc2c3c(nc4ccc(Cl)cc24)CCCC3)cc1 | inactive: -8.67% |
| COc1ccccc1N1CCN(c2cc(C)nc3nncn23)CC1 | inactive: -19.5% |
| Cc1nn2c(=O)cc(COC(=O)c3ccc(NC(=O)COc4ccccc4F)cc3)nc2s1 | inactive: 0% |
| Cc1nc2c(c(C)nn2C(C)(C)C)c(C)c1CCC(=O)Nc1ccc(F)cc1 | inactive: -9.2% |
| Cc1ccc2oc(C(=O)Nc3sc4c(c3C(=O)NCc3ccco3)CCC4)cc(=O)c2c1 | inactive: 4.55% |
| Cn1c(C(=O)NCc2cccc(Cl)c2)cc2oc3ccccc3c21 | inactive: -8.48% |
